# Data published in PubChem BioAssay AID686971 (National Center for Advancing Translational Sciences (NCATS), 2013).
# Screen size: about 360,000 compounds; about 7,500 (2.1%) were called active. Inconclusive results, whose numbers are uncertain, are shown with a selection of clear calls. Calls come from the whole dose curve; as a rule, active = well fitted cell-killing curve with a large enough effect; inconclusive = small, poorly fitted or top-dose-only effect, or effect the other way, or another doubt; inactive = no such curve, though single readings can be large or run the other way. No potency is given beside an inconclusive call; the fits are too rough.
# Experiment: qHTS for induction of synthetic lethality in tumor cells producing 2HG: qHTS for the HT-1080-IDH1KD cell line;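 for activity, negative = toxicity: 0% = DMSO wells and -100% = cell-free medium wells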
# Settings: HT-1080 IDH1 knockdown viability, ATP luminescence, 48 h; activity, negative = toxicity: at 46.1 µM (top of the series) unless noted
# In short: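 CellTiter-Glo luminescence after 48 h compound exposure at 37 degrees C of IDH1-knockdown HT-1080 cells in 5% FBS RPMI. %Activity scaled between DMSO wells and cell-free media wells, with curves fitted and assigned curve classes.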
# Potency is the fitted concentration of half-maximal effect; tags give direction and shape of the fitted curve.
SMILES,Potency,"activity, negative = toxicity"
Nc1[nH]c(=O)nc2snnc12,"inconclusive [cytotoxic, partial curve]",–
O=C(Nc1ccc(CN2CCOCC2)cc1)c1ccc(Cl)cc1,inactive,–
CC1CC(Nc2ccccc2)c2ccccc2N1C(=O)c1cccnc1 (configuration not stated),"inconclusive [cytotoxic, single point]",–
NC(Cc1ccc(F)cc1)c1csc(Nc2cc(Oc3ccccc3)ncn2)n1 (configuration not stated),active: 16.4 µM,–
COc1cccc(C2c3c(-c4cc(Cl)c(C)cc4O)n[nH]c3C(=O)N2Cc2cccnc2)c1 (configuration not stated),"inconclusive [cytotoxic, single point]",–
COc1cccc(-c2cc(NC=O)c3ncc(-c4cccc(C(=O)N(C)C)c4)n3c2)c1,"inconclusive [cytotoxic, partial curve]",–
Cc1cccc(Nc2nc(-c3ccccn3)cs2)n1,active: 0.355 µM,–
CCSc1ccccc1C(=O)N1CCN(c2ccc([N+](=O)[O-])cc2)CC1,"inconclusive [cytotoxic, single point]",–
CC(=O)N1CCN(c2nc3ccc([N+](=O)[O-])cc3s2)CC1,inactive,–
COc1cc2cc(CN(CCc3cccc(C)c3)C(=S)NCCCN3CCOCC3)c(=O)[nH]c2cc1OC,"inconclusive [cytotoxic, single point]",–
CC[n+]1c(/C=C/N(C)c2ccccc2)oc2ccc(F)cc21,"inconclusive [cytotoxic, partial curve]",–
O=C(/C=C\Nc1ccc2c(c1)OCO2)c1ccc2c(c1)OCO2,"inconclusive [cytotoxic, partial curve, poor fit]",–
Cc1nc2ccc(NS(=O)(=O)c3c(C)c(C)cc(C)c3C)cc2s1,active: 23.1 µM,–
COc1ccc(/C=C2\SC(c3ccc(C)cc3)=NC2=O)cc1OC,"inconclusive [cytotoxic, single point]",–
COc1ccc2nc(SCc3cccc(C)c3)nc(C)c2c1,–,inconclusive: 33.2%
O=C(CNC(=O)c1ccc(F)cc1)N/N=C/c1cc(Br)ccc1OC(=O)/C=C/c1ccco1,"inconclusive [cytotoxic, partial curve]",–
O=C(O)CCN=Cc1c(O)c2ccccc2oc1=O,"inconclusive [cytotoxic, partial curve]",–
OC(Cc1ccccc1)c1ncc(-c2ccc(Cl)cc2)[nH]1 (configuration not stated),"inconclusive [cytotoxic, single point]",–
O=C(C(Br)=Cc1ccccc1)c1ccccc1,"inconclusive [cytotoxic, single point]",–
CCCCN(CC)CCNC(=O)c1cc2c(=O)n(C)c3ccccc3c2n1C,–,inconclusive: -27.6% [cytotoxic]
O=C1c2ccc([N+](=O)[O-])cc2C(=O)N1c1ccc(Cl)cn1,inactive,–
CCCCN(C)CCNC(=O)c1c[nH]c2ccc(S(=O)(=O)N(CC)CC)cc2c1=O,inactive,–
O=[N+]([O-])c1cccc(NC(=S)N2CCN(c3ccccn3)CC2)c1,"inconclusive [cytotoxic, single point]",–
Cc1nnc(NC(=O)CCC(=O)N2CCN(CCOc3cccc4ccccc34)CC2)s1,inactive,–

SMILES,Potency,"activity, negative = toxicity"
CCOC(=O)c1ccc(NC(=O)COc2ccc(-n3cnnn3)cc2)cc1,"inconclusive [cytotoxic, single point]",–
O=C1/C(=C\c2ccc(Cl)c(Cl)c2)CN(C(=O)CCN2CCOCC2)C/C1=C/c1ccc(Cl)c(Cl)c1,active: 5.17 µM,–
O=C(c1ccc2nccnc2c1)N1CCCC(Nc2ccc(F)c(F)c2)C1 (configuration not stated),inactive,–
CC(=O)Oc1ccc2c(c1)OC(c1ccccc1)CC21CC(C)(C)NC(=S)N1 (configuration not stated),inactive,–
CN(CCCC(=O)Nc1ccccc1)S(=O)(=O)c1ccc(Cl)cc1,"inconclusive [cytotoxic, full curve]",–
CCOC(=O)NC(C)N1C(=O)C2C3C=CC(C3)C2C1=O (configuration not stated),inactive,–
CC(C)N(Cc1cn[nH]c1-c1ccc(-c2ccccc2)cc1)Cc1nccn1C,active: 20.6 µM,–
COc1ccc(NC(=O)c2c(OC)cccc2OC)c(OC)c1,"inconclusive [cytotoxic, single point]",–
O=C(N/N=C/c1sc(N2CCOCC2)nc1-c1ccccc1)c1ccccc1O,"inconclusive [cytotoxic, single point]",–
COC(=O)N=Nc1c(O)[nH]c2ccc(Br)cc12,inactive,–
COc1ccc(CCNC(=O)Cn2cccc2C(=O)c2ccccc2)c(OC)c1,inactive,–
Cc1c(Cl)cccc1NC(=O)c1ccco1,inactive,–
COCc1cccc(-c2csc(C(O)c3ccc(F)c(F)c3)n2)c1 (configuration not stated),"inconclusive [cytotoxic, single point]",–
CCOC(=O)C1Sc2[nH]c(=O)sc2C(c2ccc(Cl)cc2)C1C(=O)OCC (configuration not stated),"inconclusive [cytotoxic, single point]",–
COc1ccc(-c2cc(C(=O)Nc3ccccc3N3CCOCC3)c3ccccc3n2)cc1OC,"inconclusive [cytotoxic, partial curve]",–
COc1ccc(/C=C/C(=O)Nc2cc(S(=O)(=O)N3CCOCC3)ccc2C)cc1OC,"inconclusive [cytotoxic, single point]",–
Brc1ccc(CSc2ccc3nnc(-c4cccnc4)n3n2)cc1,–,inconclusive: -34.4% [cytotoxic]
O=C1c2ccc3c4c(ccc(c24)C(=O)N1c1cccc(O)c1)C(=O)N(c1cccc(O)c1)C3=O,"inconclusive [cytotoxic, partial curve]",–
Cc1ccc2nc(-c3ccccc3)cc(C(=O)N(C)CC(=O)Nc3ccccc3Br)c2c1,"inconclusive [cytotoxic, single point]",–
Cc1ccc2nc(NC(=O)c3ccc(S(=O)(=O)N4CCCc5ccccc54)cc3)sc2c1,active: 16.4 µM,–
CCOC(=O)CCc1c(C)nc2ncnn2c1C,"inconclusive [cytotoxic, single point]",–
Cn1c(/C=N/c2nc3ccccc3[nH]2)nc2ccccc21,"inconclusive [cytotoxic, single point]",–
CC[C@]1(c2ccccc2OC)ON(c2ccccc2C(F)(F)F)C1=O,"inconclusive [cytotoxic, single point]",–
Cc1cccc(C(=O)Nc2ccc(C(=O)/C=C/c3ccncc3)cc2)c1,"inconclusive [cytotoxic, single point]",–

SMILES,Potency,"activity, negative = toxicity"
OCC1(Cc2ccc(Cl)cc2)CCN(Cc2ccc(F)c(F)c2)CC1,"inconclusive [cytotoxic, single point]",–
C/C(=N\Nc1ccc(S(N)(=O)=O)cc1[N+](=O)[O-])c1ccc2c(c1)OCO2,"inconclusive [cytotoxic, partial curve]",–
CCOC(=O)C1=C(c2ccccc2)NC(SCC(=O)NC2CCCCC2)=C(C#N)C1c1ccco1 (configuration not stated),inactive,–
COC(=O)CCC(=O)Nc1sc2c(c1C#N)CCCC2,inactive,–
Cc1ccc(-c2csc(NC(=O)C3=COCCO3)n2)cc1,inactive,–
CC1CC(C)CN(C(=O)COC(=O)COc2ccccc2C#N)C1 (configuration not stated),inactive,–
COc1cc2c(cc1OC)CN(C(=O)c1cc(C3CC3)nn1-c1ccccc1)CC2,inactive,–
O=C(COC(=O)/C=C/c1ccc2c(c1)OCO2)NCc1ccc(F)cc1,"inconclusive [cytotoxic, single point]",–
O=C(c1cccc(C(F)(F)F)c1)N1CCc2c([nH]c3ccccc23)C1C(F)(F)F (configuration not stated),"inconclusive [cytotoxic, single point]",–
CC(=O)Nc1ccc(S(=O)(=O)Nc2nccc(C3Cc4ccccc4C(=O)O3)n2)cc1 (configuration not stated),inactive,–
COc1ccc(C(=O)NCc2c(C)nn(Cc3ccccc3)c2C)cc1S(=O)(=O)N1CCOCC1,"inconclusive [cytotoxic, single point]",–
CCCCCc1ccc(OCCCC[n+]2cccc(C)c2)c(CCCCC)c1,active: 4.11 µM,–
CC(=O)c1ccc(Oc2ccc(C(=O)c3ccc(C)c(C)c3)cc2[N+](=O)[O-])cc1,inactive,–
Cc1ccc(CSc2nnc(CCCCCNC(=O)OC(C)(C)C)o2)cc1,"inconclusive [cytotoxic, single point]",–
C=C1C(=O)OC2C1CCC(C)=CCCC1(C)OC21 (configuration not stated),active: 11.6 µM,–
CCn1ccnc1CN1CCCCC1C(=O)Nc1ccc(Oc2cccnc2)cc1 (configuration not stated),"inconclusive [cytotoxic, single point]",–
Fc1cc(F)c2nc(Nc3nc4cc5c(cc4s3)OCO5)sc2c1,"inconclusive [cytotoxic, single point]",–
C(#Cc1ccccc1)C[N+]1(CC#Cc2cccc3ccccc23)CCOCC1,"inconclusive [cytotoxic, single point]",–
CCCCOc1ccc(CN(C)c2ncnc(N)n2)cc1,"inconclusive [cytotoxic, single point]",–
CCCCn1c(N)c(N(CCOC)C(=O)c2ccc(COc3ccccc3)o2)c(=O)[nH]c1=O,inactive,–
N=C1C(c2nc(-c3ccc(Cl)cc3)cs2)=C(O)CN1CCCN1CCOCC1,"inconclusive [cytotoxic, single point]",–
Cc1cnc(NC(=O)CN2CCN(c3ccccc3F)CC2)s1,–,inactive: 7.76% [at 9.24 µM]
O=C(N/N=C\c1ccccn1)c1ccccc1O,"inconclusive [cytotoxic, single point]",–
O=C(Oc1c(Cl)cc(Cl)c2cccnc12)c1cccc([N+](=O)[O-])c1,"inconclusive [cytotoxic, single point]",–
